# Experimental data as given in the supplement of paper PMC11417369.
# The other results are listed elsewhere or left out.
# Tested on: PF3D7_0420300 AP2 domain 1 (GST-tagged)
# Test: gcPBM binding intensity (ln(normalized median fluorescence intensity)); higher = stronger DNA binding
# Summary of the method: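 GST-tagged P. falciparum DNA-binding domains produced in E. coli were incubated for 1 h on an Agilent 4 × 180k array of primer-extended double-stranded 36-bp intergenic genomic probes with negative controls. Binding intensity is the highest Masliner-normalised natural-log median intensity across replicate spots of either probe orientation, with bound protein detected by Alexa488 anti-GST antibody at 488 nm.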
row,Sequence,gcPBM binding intensity (ln)
1,TTTTTCCTAACATATTATATACTTGAATATTTATTA [CACACA_negctrl_site156],9.12
2,AACAAATTTATCCAAAGTACAAAATATCATTTCTTA [XGTACX_site4543],9.09
3,AACAACATGTAGACGCGTACCAACATCAGATCCTAT [XGTACX_site4071],9.47
4,ATTATAATTATATATGCATGTAGCATTTTCTATTTT [TGCATGCA_site66],9.41
5,TATAAATACTAAAAAAGTACAAAATTTCATAAAAAA [XGTACX_site2709],9.13
6,GGAAAATCTAATCATTTAATATTTATTTATCTAATT [GTGCAC_negctrl_site553],9.13
7,ATTTTATATAATACATGTACAAAAGTTTAAATTTAT [XGTACX_site6196],9.1
8,TTCTTTATTTATCATTATAAGAAGAGTTGATTTGTT [XGTACX_negctrl_site555],9.13
9,TTATAATATAGCAATTATTAAATAGGATCAAATGAA [CACACA_negctrl_site632],9.18
10,TTATTAAATATGTACACACGTACATTTTATAAATGA [CACACA_site2387],9.01
11,TATATATATATTTAGTGTACTTAAAAAAAATAATAA [XGTACX_site5454],8.99
12,ATAATAATAAAATATATATACAAAGGTGAAATTATA [TGCATGCA_negctrl_site197],9.67
13,TATTTTTTTTTCCATTGTACATTTTTGATATTTTTC [XGTACX_site744],9.57
14,CTTTGTAGTATATTAACACACAACTGTTTATAATAT [CACACA_site6038],9.45
15,TATATACTCATGCGCACACACAAGTGGGAAATTTGG [CACACA_site5056],9.6
16,TTCTTTAAAAAATTCGATAAAAAAAAAAAAAGAAAA [CACACA_negctrl_site242],8.84
17,ATATATTATAGGTACACACACATATAAGGGATTATA [CACACA_site6154],9.89
18,ATATACATATATATTGCATGCAGAGAGTATTTATAA [TGCATGCA_site646],9.27
19,ATATATATATATATTGTGCACAAAAAAAAATAAGCA,9.47
20,GGAAAGACAGTTCACAGTACCCAGGAAATCTACGGA [XGTACX_site1996],9.3
21,TTTTGGTTTTGTTCTACACACATAAAAAAAAAAAAG [CACACA_site2276],9.29
22,TTTCTATTTATTAATACATGCAAAATAAAGTAAAGT [TGCATGCA_site209],9.39

row,Sequence,gcPBM binding intensity (ln)
1,ATATATCAATATGGAATATATATATATATATATATA [TGCATGCA_negctrl_site502],8.94
2,TATATATATATATATATATTTATGTATTTATTTAAT [TGCATGCA_negctrl_site179],9.05
3,ATATATATAAATAAATGTACATAAATAATATATTAT [XGTACX_site5419],9.33
4,TTATTTTTATATTTTAATTTTAAAAAAATTTTAATT [CACACA_negctrl_site777],8.71
5,ATTATACATATTATATGTACATATATAAATAAATAA [XGTACX_site7076],9.14
6,TTTTATTATAATAATTGTACAAAAATTATTTAATAT [XGTACX_site6054],8.92
7,TTAATTTATTATCTTTGTACACAATTAAAAAAAAAA [XGTACX_site3469],8.79
8,ATAAATATACATTATACCGACCATGTGGATATTATA [XGTACX_negctrl_site241],9.37
9,AAAAAAAAAAAAAAAAGTACAAGCATTGCGTTTTAA [XGTACX_site6075],9.08
10,GTATATATATACCATTGTACTTTCGTAAAAATATTT [XGTACX_site4846],9.35
11,AAAAAAAAAAAAAAAACACACATACACGCACGCACA [CACACA_site7569],9.72
12,AGAAAAAAAAAAAAAAAAATATATATATATATATAT [TGCATGCA_negctrl_site411],8.89
13,ATGCAAATGTGCATCACACACACTAATGGGTATGTA [CACACA_site2893],9.54
14,GGAATATATATACATACACACATATATATATATATA [CACACA_site1666],9.39
15,AAAAATAATTATTCGTGTACAAAAAAAAAAATATAA [XGTACX_site439],9.27
16,ATTTTTTATGTTAATGCATGCTCATGTGTATTTCAT [TGCATGCA_site751],9.53
17,AGATATTATAAAATATGTACATATATATATATATAT [XGTACX_site2088],9.09
18,TAATTAGATTATTTTTGTACATATTATTATAGGTTA [XGTACX_site2077],9.18
19,AGCTTCATATTATGGAGTACTATTAAAAATAAATAA [XGTACX_site2649],8.86
20,AAATATAACATCATCACACACATATACTTTATATGC [CACACA_site1126],9.79
21,AAAGTAATAATGATTTGTACATATATATATATATAT [XGTACX_site8821],9.18
22,TTATCTTTTTTCGTTTGTACGTAACCATATTACTAT [XGTACX_site8853],9.37

row,Sequence,gcPBM binding intensity (ln)
1,ACGATGAATATGTAAAGTACGCAAATGTAACAATAT [XGTACX_site728],9.54
2,GTAGTTACATATAGGGTGCTCCAATAGTTGACCTCG,8.96
3,TCATAGGTTCAAAAGGGTACATTAATACATACATAT [XGTACX_site2236],9.25
4,AAATAAAAAAAGGGAACATGCAATATGTACAAATAT [TGCATGCA_site869],9.67
5,CATATATATTGATATGCACACCTATGTATTGATGTA [CACACA_site8269],9.44
6,AGCATTTTTCATTTTGCACACATGTTTTATGGGTAT [CACACA_site5839],9.65
7,TCTTTTTTCTTTTTTTCACACATTATTTTTTAAATA [CACACA_site5197],9.54
8,TATATGGAAAATTAAAGTACTAAAGAATAAATAGAA [XGTACX_site8796],9.35
9,TATAAAATAAATTGTGCACACATATTTATAAATATG [CACACA_site2330],9.49
10,TATAGATACATATACACACACACACCGACATATATA [CACACA_site9138],10.3
11,AATAATAGAAGCACCCACCCACCACCACCCACACAT [CACACA_negctrl_site1033],11.1
12,GAGAAACTTGTTTAAACATGCACAAAAAAAAAAAAA [TGCATGCA_site340],8.92
13,AAATTACACATCCATACACACATATTTTTTTTAATT [CACACA_site5242],9.77
14,GTATATATGTATATGTGTACACATATTCTTAACTCA [XGTACX_site309],9.42
15,ATATAAATTGGCAATAGTACATAAAGGCATAGAAAG [XGTACX_site2674],9.69
16,AGCTGAAAAAAAAGCTTGCACACGTATTTGCTTTAT [CACACA_site1512],9.42
17,TTTTTTTGTTATATCCTGCACTTCTTAACTATATTA [GTGCAC_site9807],9.55
18,AATAATAAGAATAACGCATGCACATATAATATAGAA [TGCATGCA_site3],9.7
19,CATATTATATTCTGCTTACACACATATATATATATA [CACACA_site3059],9.79
20,GTTTTTTATATAAGGTGGTCAACATTGTAATGTTAA [XGTACX_site3204],9.17
21,AATATGTAGTAATCAAGTACTAATGTCTTAATTCGG [XGTACX_site308],9.27
22,TAATGATAAATACATACACACAAAAAATGATATATA [CACACA_site7258],9.74

row,Sequence,gcPBM binding intensity (ln)
1,TATATCCCTTAGAATACACACCCATATGAGTGTGAA [CACACA_site8965],9.25
2,AATGTAAAATCTTCATATACATTTAAGTCTGTATTT [TGCATGCA_negctrl_site183],9.17
3,ACAAAAATTAAATAAAGTACATTTTTAAAATACGTA [XGTACX_site3880],9.13
4,AAAAGCACAAAAAATACACACACAAAAAATAAAAAA [CACACA_site8545],10.1
5,TTAACAAATAAACACACACACACACCCAAAAAAAAA [CACACA_site8068],10.1
6,ATAAAAAAAAAAACAGTAAAATTATAATTATAATTA [TGCATGCA_negctrl_site356],9.27
7,TATTTTATTATTATTATTTCTTTATAGTGTATTCTA [CACACA_negctrl_site517],9.19
8,TTTTCGTAACTGATTCAACACACAAAAGGGGGAAAA [CACACA_site8517],9.51
9,AATATATAGCTAAAAACACACAAATATATACACATA [CACACA_site9203],9.72
10,GGATAGGCATAACATAGTACGTACAAATATATATAT [XGTACX_site454],9.49
11,TATTTTATTATTATTATTAGTATGATTTCTTTATAG [CACACA_negctrl_site550],9.02
12,TTTTTTGTACCAAAAAAAAAAAAAAGAAAAAAAAAC [CACACA_negctrl_site1416],9.11
13,TAAGACAATAAATGCTGTACAATTGAATATCTTGGA [XGTACX_site636],9.16
14,TTATAAAAATTTAGTTGTACATGTCAAATTATCAAT [XGTACX_site7229],9.03
15,TATATATAAAAACACACACACACACCCTATAATTAT [CACACA_site4063],10.3
16,TTTCAAATTTAATACACACACAAGTATATATTTATC [CACACA_site3947],9.6
17,TTGTGTTATCACACGAAGGGGATAAGACATAAATGT [TGCATGCA_negctrl_site368],9.17
18,AATGTACACCCACCCACACACAAACAAATATATATA [CACACA_site5521],10.2
19,AATGTGTTTTTTTTTTTTTTTTTTTTCAATCTCTAT [CACACA_negctrl_site794],9.28
20,GAAAAAAGAAAAAAAAGTACACACATGTATATTAAT [XGTACX_site5265],9.52
21,TTTTTGTTTGAACACTGTACGTATAAATATAAAAGT [XGTACX_site6476],9.15
